The subject of the experiment is Hs578T complex spheroid growth, percent test/control. The experiment can be described thus: Anticancer human tumor Hs578T cell line growth inhibition [AhR].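 On all read-outs here: luminescent viability signal as a proxy for spheroid growth; spheroids exposed to agents for one week after three days of growth.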 As to conditions: for viability, T/C: stronger effect = lower value. An excerpt:
Multicellular complex tumor spheroid response to aryl hydrocarbon receptor antagonists in combination with a variety of drugs and investigational agents in selected tumor cell lines
The current study was undertaken to assess response to aryl hydrocarbon receptor antagonists in combination with standard-of-care drugs and investigational agents in solid tumor complex spheroid models. Complex spheroids include a stromal component modeled by human endothelial cells (HUVEC) and fibroblasts modeled by human mesenchymal stem cells (MSCs). The concentration ranges selected for each drug and investigational agent were based upon clinically achievable concentrations if the clinical Cmax of the agent was known.
Compounds. The drugs and investigational agents: BAY 2416964 (NSC825713), GNF351 (NSC835774), CH-223191 (NSC835775), CPI-455 (NSC825282), aza-TdCyd (NSC777586), decitabine (NSC127716), belinostat (NSC758774), entinostat (NSC756642), pevonedistat (NSC761192), tazemetostat (NSC777109), talazoparib (NSC765396), olaparib (NSC753686), selinexor (NSC780203), nedisertib (M3814, NSC802822), bortezomib (NSC756655), venetoclax (NSC766270), doxorubicin (NSC123127), elimusertib (BAY189344, NSC800525), ceralasertib (AZD6738, NSC777638), TAK-243 (NSC785004), alisertib (NSC759677), etoposide (NSC141540), topotecan (NSC609699), eribulin (NSC707389), gemcitabine (NSC613327), carboplatin (NSC241240), cisplatin (NSC119875), and SN-38 (NSC673596) were obtained from the National Cancer Institute (NCI) Developmental Therapeutics Program Chemical Repository (32). The FDA-approved anticancer drug set is available from the Developmental Therapeutics Program at https://dtp.cancer.gov/organization/dscb/obtaining/available plates.htm. […] The stock solutions were prepared in dimethyl sulfoxide (DMSO, Sigma-Aldrich, St. Louis, MO, cat. D2650), except for the platinum compounds which were prepared in saline (Quality Biological, Gaithersburg, MD, cat. 114-055-101), at 800-fold the tested concentration and stored at -70 degrees C prior to their use. All drugs and investigational agents were tested over a range starting from a high concentration at or near the clinical Cmax and decreasing in half-log increments. If the clinical Cmax for an agent had not been determined, the highest concentration tested was 10 microM (Table 1).
Cell Culture. All cells were maintained in an incubator at 37 degrees C and 5% CO2 with 95% humidity. The PDC lines were cultured according to standard operating procedures established by the NCI PDMR (https://pdmr.cancer.gov). Briefly, all PDCs were thawed and cultured in Matrigel-coated flasks prepared with a working solution of 1X Ham's F-12 nutrient mix, without supplementation (Invitrogen, Waltham, MA, cat. 11765054), 100 U/mL penicillin-streptomycin (Invitrogen, cat. 15140122), and 2.5% Matrigel (Corning Inc., Corning, NY, cat. 354248) for the first three passages. All PDCs were cultured in complete DMEM/F-12 media containing advanced DMEM/F-12 (Invitrogen, cat. 12634028), 4.9% defined fetal bovine serum, heat inactivated (HyClone Laboratories Inc., Logan, UT, cat. SH30070.03HI), 389 ng/mL hydrocortisone (Sigma-Aldrich, cat. H4001), 9.7 ng/mL human EGF recombinant protein (Invitrogen, cat. PHG0313), 23.4 microg/mL adenine (Sigma-Aldrich, cat. A2786), 97.3 U/mL penicillin-streptomycin (Invitrogen, cat. 15140122), 1.9 mM L-glutamine (Invitrogen, cat. 25030081), and 9.7 microM Y-27632 dihydrochloride (Tocris Bioscience, Bristol, United Kingdom, cat. 1254). The PDCs were cultured in complete DMEM/F12 media without 10 microM Y-27632 dihydrochloride for at least two passages prior to the screen. The established cell lines NCI-H1341 and […] were cultured in DMEM/F-12, HEPES (Invitrogen, cat. 11330032), 5% defined fetal bovine serum (HyClone Laboratories Inc., cat. SH30070.03), ITS premix universal culture supplement [insulin (5 microg/mL), transferrin (5 microg/mL), and selenious acid (5 ng/mL)] […]

For orientation: IC50 means the point on the concentration scale where inhibition reaches its midpoint.

Some entries of the source have several records that differ or are many. Only these are listed. There may be further records. The records of an entry repeat one measurement across runs, samples, wells, individuals or studies. Counts like (3×) count equal records among those shown.

`CC(CO)NC(=O)c1cc(-c2ccc(Cl)cc2)nn(-c2cnn(C)c2)c1=O` (stereo not drawn): the viability, T/C runs as follows: (compound alone 0.1 µM) 101, 95.9, 106 (3×), 104, 113 (2×), 111, 105, 110 (3×), 112 (2×), 119, 103 (2×), 125, 108, 117%; (compound alone 3.16 µM) 113, 106 (2×), 96.4, 118 (3×), 96.9, 124, 115, 99.9, 101 (2×), 121, 104, 114, 111, 116, 110%; (compound alone 10 µM) 95.7, 67.8, 88.5, 92 (2×), 110, 114 (2×), 101, 94.8, 107, 89.8, 82.1, 94.9, 103, 111, 102, 106, 108%.
Turning to `Cc1cncc(-c2nc(NCCc3c[nH]c4ccccc34)c3ncn(C(C)C)c3n2)c1`, the viability, T/C is 106 (2×), 104 (2×), 111 (4×), 89.7, 109, 101 (2×), 100, 102 (2×), 112, 99.2, 97.2, 103, 86% (compound alone 1 µM) and 63.6, 72.7, 72.3, 70.3, 57, 70.5, 69.6, 56, 60.9, 66.3, 66.9, 57.2, 71.8, 72.4, 67.1, 68.3, 57.3, 53.3, 45.6, 51% (compound alone 3.16 µM).
For `Nc1ccn(C2OC(CO)C(O)C2(F)F)c(=O)n1` (stereo not drawn), the concentration for half-maximal inhibition (IC50) (compound alone) was 6.35 µM, > 10 µM, < 31.6 nM.
As to `Cc1ccccc1N=Nc1ccc(NC(=O)c2ccnn2C)c(C)c1`, the viability, T/C (compound alone 0.316 µM) is 96.9, 80.4, 101 (2×), 93.3, 100, 104 (3×), 93.4, 96.2, 92.3, 105, 108 (2×), 107, 99.7, 109, 110, 95.3% and the viability, T/C (compound alone 3.16 µM) is 101, 85.2, 82.4, 82.8, 82.6, 87.4, 91.3, 96.1, 83.7, 92, 87.6, 95.8, 109, 85.7, 91.1, 99.2, 95.6, 90.1, 83.3, 82%.

The values are drawn from PubChem BioAssay AID1919010 (Molecular Pharmacology Branch, DTP, NCI, 2023).
